According to the supplement of paper PMC4166925:
± gives the standard deviation of the averaged measurements. Over roughly 33,000 sequences, “E-score (dimensionless, -0.5 to 0.5)” has its median near -0.049; the highest 2% begin near 0.37. This is one part of the list.

System: T1, PmTbr T-box DNA-binding domain (GST fusion)
T1 sequence: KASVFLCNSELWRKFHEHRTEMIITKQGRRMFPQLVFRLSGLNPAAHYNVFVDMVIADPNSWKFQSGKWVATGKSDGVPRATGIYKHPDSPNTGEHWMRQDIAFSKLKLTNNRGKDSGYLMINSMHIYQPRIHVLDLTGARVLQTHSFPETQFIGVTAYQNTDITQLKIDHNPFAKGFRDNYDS
Test: PBM E-score of 8-mer (E-score (dimensionless, -0.5 to 0.5)); Tbr is Tbrain of the sea star Patiria miniata (Pm) or the sea urchin Strongylocentrotus purpuratus (Sp); higher = stronger binding preference; most listed sequences are background and not binding sites
Settings: the construct has about 5 more residues each side
Summary of the method: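 GST-fused Tbr T-box DNA-binding domains (the whole T-box plus about five flanking residues) were expressed in BL21 E. coli at 20 °C and purified by glutathione affinity chromatography. Universal Agilent oligonucleotide arrays were made double-stranded by primer extension, incubated with 200 nM protein in PBS (pH 7.5), then scanned and quantified. Every ungapped 8-mer was scored from probe intensities. The Universal PBM Analysis Suite gave each word an enrichment E-score, averaged over duplicate arrays.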

| Sequence | PBM E-score of 8-mer |
| --- | --- |
| AGCGGTTC | -0.111 ± 0.028 |
| ACACCTAA | 0.463 ± 0.0018 |
| ACGGAATG | -0.0642 ± 0.043 |
| ACAGATGA | 0.00068 ± 0.05 |
| AACACCCT | 0.433 ± 0.017 |
| AAACCAGA | -0.142 ± 0.037 |
| ACGGGGAA | -0.205 ± 0.016 |
| AGCGATGC | -0.132 ± 0.058 |
| ATTGGTAA | -0.202 ± 0.11 |
| GCGTGGCC | 0.0139 ± 0.02 |
| AGAATCAT | -0.0651 ± 0.0097 |
| CGGCCTTA | -0.218 ± 0.029 |
| ACAAGTGC | 0.249 ± 0.005 |
| CTCGAGCA | -0.0864 ± 0.015 |
| CTTCATCC | -0.303 ± 0.023 |
| TTAATCAA | -0.0923 ± 0.11 |
| CCGAGACC | -0.383 ± 0.037 |
| GTACTATA | -0.135 ± 0.042 |
| CAGGAAAC | -0.143 ± 0.015 |
| AACTTACG | -0.133 ± 0.018 |
| AAGTTGAC | 0.188 ± 0.033 |
| CATCACCC | 0.25 ± 0.032 |

| Sequence | PBM E-score of 8-mer |
| --- | --- |
| GGAGCAAC | 0.0475 ± 0.0065 |
| ACAGCGCT | -0.0241 ± 0.069 |
| GTGAAAAC | 0.3199 ± 0.0029 |
| AGCGAAGC | -0.0446 ± 0.025 |
| CAAAAGCA | -0.0628 ± 0.021 |
| GGGAAACC | -0.213 ± 0.011 |
| AAATCCGG | -0.0666 ± 0.064 |
| GAACCGAA | -0.0968 ± 0.047 |
| CGGGGCTC | 0.022 ± 0.083 |
| AGGTAAAT | -0.129 ± 0.065 |
| GGTGATAA | 0.413 ± 0.018 |
| CGAGGGGA | -0.0811 ± 0.072 |
| CGTTAATC | 0.111 ± 0.01 |
| CTAAACAA | 0.063 ± 0.034 |
| ATCCCCCG | -0.0123 ± 0.018 |
| ACCAACCT | -0.0146 ± 0.0078 |
| GCTATTAC | 0.0909 ± 0.029 |
| GGATGCCA | -0.0435 ± 0.011 |
| GGTCAGTA | -0.273 ± 0.033 |
| GGGAATAC | -0.1698 ± 0.0012 |
| ACAGTCTA | -0.0652 ± 0.07 |
| CCACTTGA | 0.0559 ± 0.023 |

| Sequence | PBM E-score of 8-mer |
| --- | --- |
| TAGCACTA | 0.281 ± 0.024 |
| CACAGGAG | -0.0709 ± 0.032 |
| CTCGAACC | -0.074 ± 8.5e-05 |
| CTGTGTGC | -0.0563 ± 0.038 |
| CGCTACGA | -0.0671 ± 0.062 |
| CGTGCCCC | -0.288 ± 0.068 |
| TAACAGTA | 0.0841 ± 0.033 |
| ACGTTACT | -0.188 ± 0.033 |
| CATTGTCG | 0.0181 ± 0.025 |
| AACACAAA | 0.0781 ± 0.067 |
| TCAAAGCA | -0.062 ± 0.0063 |
| ACAGTCAA | 0.0473 ± 0.017 |
| GCGAGCTA | 0.2056 ± 0.00028 |
| AGAGTAAA | -0.0713 ± 0.046 |
| GGACGCAA | -0.0512 ± 0.01 |
| ATAGTAAC | -0.0833 ± 0.0067 |
| ATGCGTCC | -0.188 ± 0.0056 |
| CAGGCTAG | -0.0374 ± 0.092 |
| ACGCACGA | -0.0602 ± 0.019 |
| ATAGTTCG | -0.00624 ± 0.14 |
| CTGTGAAA | 0.384 ± 0.0085 |
| AAATTCCT | -0.0902 ± 0.013 |

| Sequence | PBM E-score of 8-mer |
| --- | --- |
| CGTGTCAG | 0.31284 ± 0.00018 |
| CCTCCAGC | -0.0157 ± 0.038 |
| ATATACAT | -0.111 ± 0.0041 |
| GAAACTAC | -0.157 ± 0.055 |
| CATTGTAG | -0.0454 ± 0.041 |
| CTTGTTCC | -0.103 ± 0.042 |
| AGGTATTG | -0.0774 ± 0.054 |
| ACGACCTC | 0.0077 ± 0.061 |
| GAACACTA | 0.051 ± 0.077 |
| ATTGTTTA | 0.0887 ± 0.046 |
| GCACAGAA | -0.179 ± 0.025 |
| CCGGAGTA | -0.0523 ± 0.062 |
| CATACCAA | -0.0572 ± 0.018 |
| CTGCGTTC | -0.259 ± 0.045 |
| AGACGATC | -0.107 ± 0.025 |
| ACTGGGAC | -0.316 ± 0.0079 |
| AACAACGT | 0.0269 ± 0.019 |
| GCACAGCA | 0.0287 ± 0.064 |
| CCCGCGGG | 0.0199 ± 0.016 |
| ATCGTCTG | -0.0783 ± 0.026 |
| GGACCGTA | -0.293 ± 0.028 |
| ACGTGCCA | 0.367 ± 0.031 |

| Sequence | PBM E-score of 8-mer |
| --- | --- |
| GGCGGCCA | -0.2 ± 0.024 |
| TATACTAA | -0.17 ± 0.047 |
| ATATTCGG | -0.15 ± 0.065 |
| ATTTACGC | 0.0788 ± 0.038 |
| GCTTGCTA | 0.0086 ± 0.1 |
| AGTTGAGA | 0.182 ± 0.028 |
| AAGTTTCA | -0.124 ± 0.084 |
| CGCACACA | 0.121 ± 0.087 |
| GGCGCCAA | 0.362 ± 0.0038 |
| CGTCAGTC | -0.00995 ± 0.022 |
| ACCGAGTC | -0.0836 ± 0.1 |
| ACCGACAG | 0.0973 ± 0.063 |
| ACTATATA | -0.0219 ± 0.14 |
| CCCGACCC | -0.239 ± 0.05 |
| CTGATAAA | -0.0061 ± 0.12 |
| GATAGCCA | -0.257 ± 0.028 |
| AGGCCCAG | -0.251 ± 0.062 |
| CATGCTAC | 0.0237 ± 0.00067 |
| CCGTGCTC | -0.302 ± 0.016 |
| CCTCGTCC | -0.151 ± 0.043 |
| GGTATGAC | -0.0587 ± 0.0068 |
